The values that follow come from the RNAGym collection of RNA variant scans (doi:10.1093/nar/gkz1192).

The chains are these.
B1: CPEB3 Ribozyme (parent)
chain: UAACAGGGGGCCACAGCAGAAGCGUUCACGUCGCAGCCCCUGUCAGAUUCUGGUGAAUCUGCGAAUUCUGCUGUAUAUCUC

Read counts are not given, so values of variants with three or more changes are uncertain.

The variants in the series derive from B1. Put plainly: self-cleavage, relative activity (ratio to wild type); higher = more cleavage; in vitro, sequencing. The essentials: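 Relative activity was defined as the cleaved/total read fraction for a variant divided by the same fraction for the unmutated ribozyme. CPEB3 self-cleaving ribozyme libraries were made by rounds of error-prone PCR, barcoded, and transcribed in vitro with T7 RNA polymerase for 5 hours at 37°C, and cleavage ran through transcription plus a 15 min DNase I step before EDTA. Illumina sequencing of template-switched reverse transcripts gave the reads, and DNA sequencing mapped the barcodes. Averages come from three batches, using variants with at least 5 reads.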
For A13G C27A A28G A35U U60C U69C, the self-cleavage amounted to 0.06.

For the variant A13G A35G U54C, the self-cleavage is 0.68.

A13G A15G G46U A56G U60C U80C: the self-cleavage was found to be 0.16.

A13C A35G U49C A56G U67C A77G: the self-cleavage was found to be 0.07.

As for A13G A21G U80C, the self-cleavage worked out at 0.35.

As for A13G A45U A77U, the self-cleavage was 0.34.

Turning to A13G A35G U54C G63U U67C U80C, the self-cleavage stood at 0.11.

With A13C U43C A45G A47U U58C U72A, the self-cleavage was 0.2.

In the case of A13G A15U U25A, the self-cleavage worked out at 0.12.

As for A13G C17U U60G U80C, the self-cleavage came to 0.13.

As to A13G A21G U31A A56U C62G, the self-cleavage was determined as 0.07.

For A13G A20U U41C U49C U60A, the self-cleavage was 0.04.

Take A13G A21U G53U: the self-cleavage is 0.39.

Take A13G A28C U54C U60A U66C A75G: the self-cleavage was 0.07.

With A13G A45G A75C A77G, the self-cleavage was found to be 0.84.

Take A13C U26A A35G U43C U58A: the self-cleavage came out at 0.06.

A13G A28G U51A G55C A56G: the self-cleavage is 0.24.

Turning to A13C U25C U72C, the self-cleavage came out at 0.48.

As to A13G C14A G19A U76A U80A, the self-cleavage was determined as 0.19.

With A13G A28G C32U U49C A65G, the self-cleavage worked out at 0.11.

A13G A15G U25A: the self-cleavage was determined as 0.62.

Regarding A13C U25C U41A U60C, the self-cleavage turned out to be 0.16.

On to A13G A28U U51C A56C C59A, for which the self-cleavage was found to be 0.14.

Turning to A13G A15C A47G, the self-cleavage is 0.36.

With A13G A21G A35U U80C, the self-cleavage came out at 0.16.

In the case of A13G A20G G36U, the self-cleavage is 0.19.

Consider A13C U41A U51A U78A, for which the self-cleavage was 0.17.

Turning to A13G A20G U41C G55U U69A, the self-cleavage worked out at 0.23.

Consider A13G A28U U72C, for which the self-cleavage is 0.53.

Regarding A13G C29U A65G U80C, the self-cleavage turned out to be 0.14.

Consider A13C U25C G36A, for which the self-cleavage is 0.08.

On to A13G A57G U72C, for which the self-cleavage was 0.66.

For the variant A13G A57G U80C, the self-cleavage is 0.97.

Consider A13G A57G U80A, for which the self-cleavage amounted to 1.03.

For A13G C17U U31A, the self-cleavage was 0.3.

For the variant A13C G22C U51A U60C, the self-cleavage was 0.11.

Regarding A13G A18U U54C G55U A57U U58A U67A, the self-cleavage turned out to be 0.09.

With A13G A15U U25C C34U U74C, the self-cleavage came out at 0.09.

As for A13G C23U U76C, the self-cleavage is 0.26.

Regarding A13G A28G G33A C38G C44U U72A, the self-cleavage is 0.03.

Take A13G A65G U80C: the self-cleavage amounted to 0.27.

Consider A13G A18C U49A A75U, for which the self-cleavage was 0.32.

As to A13G C17U A35G A47G, the self-cleavage amounted to 0.15.

For A13G A21G C32U U51A U60C, the self-cleavage is 0.07.

For A13G A18C U25C G30C A45U U51A, the self-cleavage was 0.05.

Regarding A13G A15G C38U, the self-cleavage amounted to 0.22.

Take A13G A18G C50U A75G: the self-cleavage is 0.11.

For the variant A13G A45G U76A C81U, the self-cleavage was found to be 0.33.

On to A13G A35C A56G U78G C81U, for which the self-cleavage amounted to 0.92.

As for A13G A35U U72A U78C, the self-cleavage worked out at 0.24.

A13C U31C A47G U54C U60C A65G: the self-cleavage worked out at 0.14.

For the variant A13G A18G A21G, the self-cleavage came out at 0.34.

Consider A13C U31C A45G A65G G73A, for which the self-cleavage turned out to be 0.11.

Consider A13G A35G C37U, for which the self-cleavage came out at 1.04.

As to A13G A35G U69C, the self-cleavage was determined as 0.2.

For A13G A15G G61A, the self-cleavage came out at 0.1.

With A13G A21U A64C A65G U69C A77G, the self-cleavage was 0.21.

Turning to A13G A20G U26C U69A, the self-cleavage was determined as 0.35.

For A13G A18U A47G A65U, the self-cleavage was found to be 0.14.

A13G A20G A56G U66C: the self-cleavage is 0.25.

Regarding A13G A21G U31A U48A U72C, the self-cleavage was 0.43.

A13G A18G A35U U51C U76A: the self-cleavage came out at 0.25.

Regarding A13G A20G U26A G63A U69C, the self-cleavage is 0.12.

In the case of A13G C17U G33A A35U U72A, the self-cleavage was determined as 0.29.

Turning to A13G A35U A65G, the self-cleavage stood at 0.15.

As for A13G A18U A28G, the self-cleavage is 0.38.

As for A13G A20G C37U U60C A65C U72A, the self-cleavage came to 0.1.

A13G A56C G63A A75G: the self-cleavage is 0.21.

On to A13G A15U U25C U26A U67C, for which the self-cleavage amounted to 0.46.

For the variant A13C C34A A56U U66C C71U U72A U76C, the self-cleavage was found to be 0.09.

As to A13G A21G U60C, the self-cleavage was 0.17.

With A13C C23G C34U, the self-cleavage stood at 0.07.

Take A13G A20U A28G C40A U51A U58A: the self-cleavage stood at 0.25.

For A13G A35G U66C U80C, the self-cleavage worked out at 0.48.

As for A13G A20G U25C, the self-cleavage is 0.1.

For A13C G22C U48C C62U, the self-cleavage stood at 0.25.

Turning to A13G A18G C40U U67C U69C U72C A75G, the self-cleavage is 0.08.

Take A13G A21G U31C A57G: the self-cleavage amounted to 0.14.

Regarding A13G A21G U25C A65G U72A U80C, the self-cleavage came out at 0.09.

For the variant A13G A35U U58C U67G U72G, the self-cleavage came to 0.27.

A13G A20G U51A A64U U69A G73U: the self-cleavage worked out at 0.15.

Take A13G A15G U54A U69C U80C: the self-cleavage stood at 0.08.

A13C U25C A45G A47U A57G U72A: the self-cleavage worked out at 0.11.
